# The other results are listed elsewhere or left out. The data describe in vitro nicking of single-stranded DNA by Rep domains at 3 µM enzyme and 37 °C for 1 h; the strands have 90 letters, of which the middle is given. Numbers give uncut DNA relative to the enzyme-free pool, as log2; more negative means more cut, near 0 not cut, and no call is made. Counts are relative to all reads; where an enzyme cuts many sequences, the uncut ones exceed 0.
# Columns and labels:
# Assay in all cases: uncleaved DNA left, log2 of reads against the no-enzyme library (log2 ratio); higher = less cleavage (more negative = more Rep cleavage of the k-mer); sequences stand for … in CTCGTCCG…ACCGGAGA
# [1] = system: T1, Rep nickase domain of Muscovy duck circovirus
# T1 sequence (residues 1-111 of Rep, tag left off): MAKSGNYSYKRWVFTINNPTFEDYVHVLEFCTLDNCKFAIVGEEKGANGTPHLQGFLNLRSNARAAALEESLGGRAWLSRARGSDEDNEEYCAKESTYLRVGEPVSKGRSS
# Experimental: (§1)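 A pool of 90-nt single-stranded DNAs with seven random bases just before the constant AC of the nick site (name = the seven bases) was cut by 3 µM recombinant His6-SUMO-tagged Rep nickase domain (300 nM DNA, 50 mM HEPES pH 8.0, 50 mM NaCl, 1 mM MnCl2, 1 h, 37 °C, three replicates). Uncut DNA was amplified and sequenced.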
# [2] = system: T2, Rep nickase domain of banana bunchy top virus
# T2 sequence (residues 1-94 of Rep, tag left off): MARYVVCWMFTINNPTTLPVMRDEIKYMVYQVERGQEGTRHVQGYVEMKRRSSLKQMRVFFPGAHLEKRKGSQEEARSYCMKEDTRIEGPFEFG
# Experimental: as §1
# [3] = system: T3, Rep nickase domain of cabbage leaf curl virus
# T3 sequence (residues 1-116 of Rep, tag left off): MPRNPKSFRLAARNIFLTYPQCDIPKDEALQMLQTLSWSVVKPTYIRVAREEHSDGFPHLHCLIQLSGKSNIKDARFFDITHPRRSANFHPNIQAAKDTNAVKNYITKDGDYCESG
# Experimental: as §1
# [4] = system: T4, Rep nickase domain of chickpea chlorotic dwarf virus
# T4 sequence (residues 1-124 of Rep, tag left off): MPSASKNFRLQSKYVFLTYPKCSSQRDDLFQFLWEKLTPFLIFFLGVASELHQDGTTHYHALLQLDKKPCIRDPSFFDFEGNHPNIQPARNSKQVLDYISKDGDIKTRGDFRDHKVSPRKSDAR
# Experimental: as §1
# [5] = system: T5, Rep nickase domain of faba bean necrotic yellows virus
# T5 sequence (residues 1-98 of Rep, tag left off): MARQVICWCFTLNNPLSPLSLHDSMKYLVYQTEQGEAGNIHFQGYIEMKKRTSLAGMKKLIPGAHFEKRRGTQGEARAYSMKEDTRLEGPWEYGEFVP
# Experimental: as §1
# [6] = system: T6, Rep nickase domain of maize striate mosaic virus
# T6 sequence (residues 1-117 of Rep, tag left off): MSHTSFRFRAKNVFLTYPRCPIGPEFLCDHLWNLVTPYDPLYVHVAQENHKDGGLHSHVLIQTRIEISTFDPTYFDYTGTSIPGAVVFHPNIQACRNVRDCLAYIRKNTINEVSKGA
# Experimental: as §1
# [7] = system: T7, Rep nickase domain of porcine circovirus 2
# T7 sequence (residues 2-116 of Rep, tag left off): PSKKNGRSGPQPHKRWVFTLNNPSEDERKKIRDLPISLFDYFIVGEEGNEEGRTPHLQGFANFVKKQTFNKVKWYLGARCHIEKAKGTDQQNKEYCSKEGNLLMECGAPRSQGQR
# Experimental: as §1
# [8] = system: T8, Rep nickase domain of tomato golden mosaic virus
# T8 sequence (residues 1-124 of Rep, tag left off): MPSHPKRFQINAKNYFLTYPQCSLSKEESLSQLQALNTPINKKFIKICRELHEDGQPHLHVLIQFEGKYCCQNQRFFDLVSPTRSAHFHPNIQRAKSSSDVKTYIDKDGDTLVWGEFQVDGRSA
# Experimental: as §1
# [9] = system: T9, Rep nickase domain of tomato yellow leaf curl virus
# T9 sequence (residues 1-136 of Rep, tag left off): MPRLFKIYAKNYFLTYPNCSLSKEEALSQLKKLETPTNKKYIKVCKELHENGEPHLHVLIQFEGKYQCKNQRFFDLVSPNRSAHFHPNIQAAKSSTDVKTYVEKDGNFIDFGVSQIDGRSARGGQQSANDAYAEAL
# Experimental: as §1
# [10] = system: T10, Rep nickase domain of wheat dwarf virus
# T10 sequence (residues 1-137 of Rep, tag left off): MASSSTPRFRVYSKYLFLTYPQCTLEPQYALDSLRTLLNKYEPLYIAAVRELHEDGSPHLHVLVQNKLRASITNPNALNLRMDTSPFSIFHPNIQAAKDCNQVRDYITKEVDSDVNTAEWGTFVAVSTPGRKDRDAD
# Experimental: as §1
Sequence,uncleaved DNA left (log2) [1],uncleaved DNA left (log2) [2],uncleaved DNA left (log2) [3],uncleaved DNA left (log2) [4],uncleaved DNA left (log2) [5],uncleaved DNA left (log2) [6],uncleaved DNA left (log2) [7],uncleaved DNA left (log2) [8],uncleaved DNA left (log2) [9],uncleaved DNA left (log2) [10]
GTTATGG,0.0849,0.0581,0.356,0.93,0.0906,1.14,0.173,0.0104,0.0425,0.0625
CCGAATG,-0.019,-0.153,0.0568,0.48,-0.0385,1.25,0.087,0.0296,0.00255,0.00513
GCGTACA,-0.0479,-0.0344,0.232,0.00619,-0.0319,0.869,-0.116,-0.11,-0.0319,0.00692
GTGGTAC,-0.101,0.06,0.218,0.684,-0.139,1.84,0.0136,0.066,-0.0388,-0.0236
TAGTACT,-3.78,-3.98,-3.49,-3.26,-3.86,-1.55,-4.28,-2.87,0.0909,-2.41
TCCGCGA,-0.0861,-0.101,-0.691,-0.265,-0.0469,-0.636,0.0328,-0.17,-0.132,-0.245
GTTGTGA,0.062,0.00579,-0.00511,0.485,-0.0161,0.216,0.0675,0.0622,-0.0122,0.0141
AGTACTT,-0.0888,-0.0956,0.122,-0.549,-0.126,1.13,-3.18,-0.0433,-0.0397,0.0872
TCAACGT,-0.00874,-0.0575,-0.051,-0.669,-0.038,-0.413,0.0563,-0.114,-0.0978,-0.117
GAATAGG,0.122,-0.0214,0.307,1.08,0.0509,0.905,0.151,0.112,-0.032,0.121
GGGTAGC,0.0776,0.128,0.835,1.83,-0.000806,2.16,0.234,0.0828,0.129,0.232
AACGGAT,0.226,0.103,0.251,1.74,0.186,1.98,0.284,0.277,-0.0886,0.122
CCTGAGC,-0.0401,-0.103,-0.164,-0.409,0.0537,-0.807,0.102,-0.163,0.0115,0.0737
AGCTAAT,-0.758,-0.0663,-0.767,-0.448,-0.105,0.225,-3.77,-0.117,0.0505,-0.367
TTCATCC,0.0275,-0.0275,0.174,-0.0644,-0.0867,-0.156,-0.0712,-0.159,0.0422,-0.00655
ATTGCAG,0.0315,0.0228,-0.413,1,0.0613,-0.109,0.138,-0.0218,0.139,-0.0327
CCAAATT,-0.0864,-0.043,-0.136,-2.66,-0.157,-0.689,-0.361,-0.233,-0.207,-0.169
CGACTTG,-0.0334,-0.0449,0.0113,0.65,0.0453,1.6,-0.0738,-0.236,-0.103,0.00803
AACCTCT,-0.103,-0.151,-0.507,-2.98,-0.2,-0.63,-1.63,-0.157,-0.142,-0.246
GGCCACC,-0.000189,0.0816,0.467,1.13,0.0158,1.66,-0.00228,0.0258,0.0494,0.176
GGCTGGT,-0.0233,0.0718,0.208,0.81,-0.111,1.61,-0.285,-0.0621,0.0937,0.038
CCTTCCT,-0.494,-0.205,-0.229,-2.38,-0.00899,-0.671,-1.12,-0.107,-0.15,-0.18
GCATGTC,0.115,0.113,0.101,0.296,0.142,-0.302,0.0854,0.0413,0.0802,0.0212
ACGAGTG,-0.0533,0.136,-0.203,0.28,0.0193,-0.014,0.145,0.0186,-0.0673,-0.0342
GTTTAGC,-0.0257,0.0804,0.132,0.669,-0.0255,0.662,0.068,0.0156,0.0405,0.00572
CTAAATT,0.0256,-0.174,0.0575,-2.29,-0.0551,-0.531,-0.447,0.0332,-0.0262,-0.0483
TCAACAC,-0.0282,0.00514,-0.0279,-1.01,0.032,-0.691,-0.0202,0.0123,-0.0585,-0.0194
GTGGTAT,0.116,0.16,0.496,1.26,-0.0792,2.11,0.0543,0.0806,0.115,0.1
CGACCGC,-0.0519,-0.0194,0.216,0.143,-0.105,-0.159,0.0734,-0.11,-0.0257,0.144
AGGACCC,0.0447,0.0366,0.44,1.33,0.00461,1.54,0.0765,-0.0613,-0.0665,0.0589

# — the supplement of paper PMC7826260
